# Data reported in the supplement of paper PMC4166925.
# ± gives the standard deviation of the averaged measurements. Whole data set: some 33,000 sequences, median “E-score (dimensionless, -0.5 to 0.5)” near -0.046, cut for the highest 2% near 0.36. This is one part of the list.
# Tested on: T1, SpTbr T-box DNA-binding domain (GST fusion)
# T1 sequence: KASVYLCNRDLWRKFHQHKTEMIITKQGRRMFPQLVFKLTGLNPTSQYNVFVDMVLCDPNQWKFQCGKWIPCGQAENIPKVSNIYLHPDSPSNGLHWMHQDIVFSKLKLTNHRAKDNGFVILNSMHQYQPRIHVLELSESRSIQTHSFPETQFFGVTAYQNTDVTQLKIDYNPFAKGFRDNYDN
# Experiment: PBM E-score of 8-mer (E-score (dimensionless, -0.5 to 0.5)); Tbr is Tbrain of the sea star Patiria miniata (Pm) or the sea urchin Strongylocentrotus purpuratus (Sp); higher = stronger binding preference; most listed sequences are background and not binding sites
# Details: the construct has about 5 more residues each side
# Protocol: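 Universal protein-binding microarray (Agilent AMADID 016060, 60-bp probes with a 35-bp variable region) incubated with 200 nM GST-fused Strongylocentrotus purpuratus Tbr T-box DNA-binding domain (residues 362-554) in PBS pH 7.5. Scored for every ungapped 8-mer (given with its reverse complement) as E-score (range -0.5 to 0.5; >0.45 counts as bound) and Z-score of median probe intensity. Two replicate arrays (datasets 1 and 2).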
# 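Further: protein at 200 nM in PBS on universal double-stranded arrays.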
row,Sequence,PBM E-score of 8-mer
1,CTTTCTAA,-0.187 ± 0.023
2,ATACCCCA,-0.156 ± 0.069
3,AGGATCAA,-0.2196 ± 0.00077
4,ATAATCTG,-0.135 ± 0.012
5,AAATCCCT,-0.104 ± 0.071
6,ACCCCACC,-0.0217 ± 0.12
7,CAAGATCA,-0.0232 ± 0.022
8,CGACTCAG,0.0215 ± 0.028
9,GCAAGGTA,-0.0328 ± 0.0042
10,CAGCCCCA,-0.03 ± 0.0063
11,CCTATGAA,-0.211 ± 0.019
12,GGATACAA,0.0747 ± 0.011
13,TGGGGACA,-0.0363 ± 0.01
14,GAGTCTCA,0.0256 ± 0.034
15,AGACATTA,-0.121 ± 0.013
16,CAAAGGCG,0.124 ± 0.017
17,ATTGTGAA,0.317 ± 0.067
18,CCTTAAAC,-0.152 ± 0.018
19,CGGACCGA,-0.161 ± 0.02
20,ACCTCACA,0.41113 ± 4.2e-05
21,CACCGCGG,0.00256 ± 0.0018
22,ACCTCGAG,0.174 ± 0.04
23,CATTATTA,-0.0139 ± 0.015
24,CGGTTCCC,-0.179 ± 0.036
25,GGGACAAA,-0.149 ± 0.042

row,Sequence,PBM E-score of 8-mer
1,CTCCAGAC,-0.0344 ± 0.063
2,TAGGTTAA,-0.244 ± 0.038
3,CAACCGCC,-0.00536 ± 0.012
4,CTTATGTC,-0.115 ± 0.084
5,TCCGTTAA,-0.0135 ± 0.015
6,AAGCGCTT,0.0436 ± 0.059
7,CCGTATAC,-0.0858 ± 0.014
8,CCGAGACA,-0.0213 ± 0.11
9,ATCCGGTG,-0.0513 ± 0.016
10,CATGGCCC,-0.225 ± 0.024
11,CTATAGCC,-0.141 ± 0.062
12,CGGTGCAC,-0.0243 ± 0.0037
13,ACTATTCA,-0.127 ± 0.038
14,AGAGCTAC,-0.2216 ± 0.00082
15,ATTCAGAA,-0.215 ± 0.0069
16,CGGCACTC,0.0723 ± 0.09
17,CCGAAGGA,-0.297 ± 0.034
18,CACGATCC,0.0869 ± 0.011
19,AGGGGCCC,-0.238 ± 0.011
20,GCACAAGC,0.0181 ± 0.00073
21,CTAATTAG,0.0537 ± 0.015
22,TGATAGCA,0.243 ± 0.0086
23,CTGTCCGC,-0.114 ± 0.015
24,AAATGATA,-0.124 ± 0.082
25,ATGTAAAT,-0.102 ± 0.023

row,Sequence,PBM E-score of 8-mer
1,GACTTTCA,0.0938 ± 0.012
2,GACAACCC,0.108 ± 0.07
3,AGCGGATG,-0.173 ± 0.11
4,ATACACGG,-0.0947 ± 0.0036
5,ACCTGCGT,0.12 ± 0.0061
6,CGCATACG,-0.104 ± 0.077
7,CCTTAAGG,0.0534 ± 0.028
8,ATCAGTCC,0.0219 ± 0.035
9,GGGTTGAA,-0.00971 ± 0.043
10,CGCTAGGA,0.0877 ± 0.053
11,GAAGTAGC,-0.0175 ± 0.059
12,AACCACAT,-0.165 ± 0.013
13,GATGGGGA,-0.0619 ± 0.011
14,GTGGCCAA,0.12 ± 0.022
15,GGCCTTTA,-0.26 ± 0.032
16,GGGAATCA,-0.00442 ± 0.0086
17,CAAAGCCG,0.0955 ± 0.059
18,ACAAAAGT,-0.0136 ± 0.026
19,TAAAGGCA,-0.185 ± 0.042
20,AAGGGACG,-0.146 ± 0.013
21,CGAGTAGA,-0.234 ± 0.0044
22,ACAAAATC,0.148 ± 0.037
23,ACTTGATG,0.129 ± 0.055
24,CAGCGCCG,0.149 ± 0.031
25,CCCCTTCG,-0.137 ± 0.046

row,Sequence,PBM E-score of 8-mer
1,GCACATAA,0.282 ± 0.01
2,CCAGGTAC,-0.149 ± 0.029
3,AACCTGCC,-0.0535 ± 0.017
4,CGGAGAAA,-0.0147 ± 0.059
5,CAGCAGAC,-0.043 ± 0.056
6,CCGTGTCC,-0.0848 ± 0.067
7,ACGTATCA,0.0221 ± 0.048
8,CCAGGTAA,0.0245 ± 0.028
9,AACTAATA,-0.0137 ± 0.07
10,TAGAGTAA,-0.0928 ± 0.027
11,AGATCAAG,-0.289 ± 0.051
12,AAGGTTCG,-0.0755 ± 0.073
13,GTTGGCAA,0.275 ± 0.037
14,TATGTGAA,0.17 ± 0.07
15,GCCTAACC,-0.292 ± 0.008
16,CAAAGTCC,-0.143 ± 0.034
17,TCCCGAAA,-0.148 ± 0.096
18,AATCGCCA,0.172 ± 0.044
19,AGTGGTAT,0.00231 ± 0.046
20,TCAAGGAA,-0.0393 ± 0.033
21,AAGAGTGC,0.122 ± 0.11
22,ACAAGTAT,0.153 ± 0.033
23,AATTTGGT,-0.0656 ± 0.0083
24,ATGCTCCG,-0.0668 ± 0.061
25,ACCACCCA,-0.121 ± 0.0061

row,Sequence,PBM E-score of 8-mer
1,AGACTTAC,-0.168 ± 0.013
2,AATGGATG,-0.0718 ± 0.025
3,ACAGGTAA,0.0693 ± 0.0017
4,ACACAACA,0.251 ± 0.055
5,AATGTTTC,-0.194 ± 0.021
6,GTTCTGGA,-0.184 ± 0.062
7,CTTCCCAA,0.102 ± 0.031
8,GATATAAC,0.135 ± 0.066
9,GTGGGGGA,0.163 ± 0.1
10,ATCACCCG,0.12 ± 0.057
11,CGATTGGC,0.0154 ± 0.064
12,CTCGTCCC,-0.27 ± 0.048
13,CTCCAGCC,-0.22 ± 0.077
14,ATTATTTG,-0.0481 ± 0.057
15,ACCTTTCG,0.218 ± 0.035
16,GAGTCCGA,-0.197 ± 0.018
17,GCCTAAGA,-0.128 ± 0.039
18,GTGACTAA,0.132 ± 0.027
19,ACCCACGA,0.0353 ± 0.086
20,GAGGCTGA,-0.088 ± 0.064
21,ATATCTCA,0.0496 ± 0.054
22,GGCGAGTA,-0.0549 ± 0.0083
23,TACGAGTA,-0.0745 ± 0.028
24,AAGTAAGC,0.0285 ± 0.0043
25,CCGAGGTC,-0.056 ± 0.0086

row,Sequence,PBM E-score of 8-mer
1,TCTCCTCA,0.0194 ± 0.054
2,GGAGTCTA,-0.3069 ± 0.002
3,ATCCTTAA,-0.213 ± 0.12
4,ACATGGCC,-0.178 ± 0.071
5,ACAACCTA,0.0497 ± 0.034
6,TTGACCAA,-0.091 ± 0.022
7,ACGAGTCG,0.143 ± 0.0067
8,CGAAGGAG,-0.101 ± 0.069
9,CGTAACAA,0.0582 ± 0.022
10,ATAAACTA,-0.125 ± 0.064
11,GAGAGACC,-0.14 ± 0.014
12,ACTCGAAA,0.0211 ± 0.025
13,ACGTCCGC,0.148 ± 0.045
14,TACATCTA,-0.1835 ± 0.00045
15,ACAACCGT,0.153 ± 0.0027
16,GTCTCTGA,-0.296 ± 0.031
17,CGCTTTAA,-0.169 ± 0.035
18,AATGTCAC,0.237 ± 0.025
19,ATTCTGTC,0.04 ± 0.016
20,ACATAGCT,-0.119 ± 0.059
21,GTTGTCAA,0.3671 ± 0.0033
22,GGAATACC,-0.131 ± 0.045
23,AGAAAACC,-0.00144 ± 0.037
24,GCTATTAA,0.155 ± 0.1
25,CCCGGTCA,-0.0266 ± 0.01

row,Sequence,PBM E-score of 8-mer
1,GCACATGA,0.164 ± 0.041
2,TCACTTAA,0.215 ± 0.02
3,ACCATTAG,-0.0362 ± 0.048
4,GTAATACA,-0.158 ± 0.041
5,ATATTGAC,0.000605 ± 0.011
6,AAGCCCCT,-0.221 ± 0.016
7,CGACGTTA,-0.0348 ± 0.047
8,ACTACGGC,-0.00424 ± 0.021
9,GACGCGGC,-0.0197 ± 0.021
10,CAAGCGGC,0.0648 ± 0.041
11,ACTTGACA,0.347 ± 0.0064
12,CTCTTTAC,-0.0208 ± 0.066
13,ATTGACCC,0.00364 ± 0.0032
14,ACTCAACG,-0.043 ± 0.033
15,ACTTAAGG,-0.0537 ± 0.012
16,ACGGCGCT,0.191 ± 0.023
17,ATAGGTGG,0.268 ± 0.021
18,GGCTCATA,-0.195 ± 0.047
19,CATTCCGA,0.0408 ± 0.0047
20,CTGATAGC,-0.0157 ± 0.028
21,CAAATCAG,-0.0928 ± 0.068
22,GGGGCCCA,-0.133 ± 0.067
